At least one peptide structure holds a part that was inferred or is arguable (an end, a ring closure or a residue). At least one structure is not confirmed: it was looked up by name or label, or the drawing left a doubt. Square brackets hold non-standard residues; d marks the D form. Ends that are not written are not given here. Peptide text beside a SMILES is read from it. Nle = CCCC[C@H](N)C(=O)O
Assays:
Type in all cases: cell-based
MCR2 = target: T1, MCR2 (Homo sapiens, UniProt Q01718); experiment: cAMP production (LANCE cAMP assay) in CHO-MCR2 cells
T1 construct: expressed in transfected cells; host or cells: CHO (CHO-MCR2)
Excerpt: The manufacturer's recommended protocol was followed.

MCR5 = target: T2, MCR5 (Homo sapiens, UniProt P33032); experiment: cAMP production (LANCE cAMP assay) in CHO-MCR5 cells; settings: Cell Pool C (optimized cell bank)
T2 construct: expressed in transfected cells; host or cells: CHO (CHO-MCR5)

MCR3 = target: T3, MCR3 (Homo sapiens, UniProt P41968); experiment: cAMP production (LANCE cAMP assay) in CHO-MCR3 cells
T3 construct: expressed in transfected cells; host or cells: CHO (CHO-MCR3)

MCR4 = target: T4, MCR4 (Homo sapiens, UniProt P32245); experiment: cAMP production (LANCE cAMP assay) in CHO-MCR4 cells
T4 construct: expressed in transfected cells; host or cells: CHO (CHO-MCR4)

[1] = Cell Pool C (optimized cell bank)
[2] = Cell Pool B (partially enriched for MCR expression)

T2 sequence (P33032 whole entry): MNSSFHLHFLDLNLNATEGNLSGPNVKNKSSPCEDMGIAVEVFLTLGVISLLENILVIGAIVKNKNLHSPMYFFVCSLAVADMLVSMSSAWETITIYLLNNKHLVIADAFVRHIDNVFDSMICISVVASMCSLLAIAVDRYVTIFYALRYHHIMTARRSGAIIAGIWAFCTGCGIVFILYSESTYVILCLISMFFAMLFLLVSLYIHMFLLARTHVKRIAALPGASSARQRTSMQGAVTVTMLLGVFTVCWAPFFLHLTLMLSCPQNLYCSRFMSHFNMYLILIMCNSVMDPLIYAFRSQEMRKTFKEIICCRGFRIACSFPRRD
T3 sequence (P41968 whole entry): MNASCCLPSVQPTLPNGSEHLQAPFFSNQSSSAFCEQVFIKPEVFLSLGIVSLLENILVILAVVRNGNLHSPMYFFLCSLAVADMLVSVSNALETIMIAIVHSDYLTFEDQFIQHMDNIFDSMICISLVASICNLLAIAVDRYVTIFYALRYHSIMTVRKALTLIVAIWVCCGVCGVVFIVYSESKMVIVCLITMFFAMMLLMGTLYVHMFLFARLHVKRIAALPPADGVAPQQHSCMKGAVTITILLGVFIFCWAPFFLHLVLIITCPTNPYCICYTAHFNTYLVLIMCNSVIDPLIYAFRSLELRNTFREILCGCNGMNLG
T1 sequence (Q01718 whole entry): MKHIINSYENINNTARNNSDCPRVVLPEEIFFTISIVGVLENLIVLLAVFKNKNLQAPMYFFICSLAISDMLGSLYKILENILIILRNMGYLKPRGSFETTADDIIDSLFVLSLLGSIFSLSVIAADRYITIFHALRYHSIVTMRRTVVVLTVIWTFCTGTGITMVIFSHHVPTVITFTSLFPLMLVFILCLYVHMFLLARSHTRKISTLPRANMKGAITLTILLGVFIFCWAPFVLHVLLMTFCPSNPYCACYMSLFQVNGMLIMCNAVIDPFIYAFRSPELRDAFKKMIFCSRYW
T1 sequence (Q8TCY5 whole entry partner): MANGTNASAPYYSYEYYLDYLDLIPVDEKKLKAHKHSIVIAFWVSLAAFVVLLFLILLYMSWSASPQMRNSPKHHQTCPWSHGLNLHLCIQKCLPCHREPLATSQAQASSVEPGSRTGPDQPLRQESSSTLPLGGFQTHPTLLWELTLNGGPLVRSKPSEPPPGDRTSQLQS
T4 sequence (P32245 whole entry): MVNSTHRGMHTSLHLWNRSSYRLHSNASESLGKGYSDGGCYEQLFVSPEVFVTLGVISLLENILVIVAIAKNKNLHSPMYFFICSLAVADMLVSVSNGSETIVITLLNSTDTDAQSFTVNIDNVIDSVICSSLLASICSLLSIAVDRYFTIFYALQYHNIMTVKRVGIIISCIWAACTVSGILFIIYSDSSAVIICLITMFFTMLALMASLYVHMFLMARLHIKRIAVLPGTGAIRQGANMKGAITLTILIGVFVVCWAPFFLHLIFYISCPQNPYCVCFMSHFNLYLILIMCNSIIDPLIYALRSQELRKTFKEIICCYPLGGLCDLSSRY

Molecule: CCCC[C@H](NC(=O)[C@H](CO)NC(=O)[C@H](Cc1ccc(O)cc1)NC(=O)[C@@H](N)CO)C(=O)N[C@@H](CCC(=O)O)C(=O)N[C@@H](Cc1c[nH]cn1)C(=O)N[C@H](Cc1ccccc1)C(=O)N[C@@H](CCCNC(=N)N)C(=O)N[C@@H](Cc1c[nH]c2ccccc12)C(=O)NCC(=O)N[C@@H](CCCCN)C(=O)N1CCC[C@H]1C(=O)N[C@H](C(=O)NCC(=O)N[C@@H](CCCCN)C(=O)N[C@@H](CCCCN)C(=O)N[C@@H](CCCNC(=N)N)C(=O)N[C@@H](CCCNC(=N)N)C(=O)N1CCC[C@H]1C(=O)N[C@H](C(=O)N[C@@H](CCCCN)C(=O)N[C@H](C(=O)N[C@@H](Cc1ccc(O)cc1)C(=O)N1CCC[C@H]1C(=O)O)C(C)C)C(C)C)C(C)C [compound 47]
- EC50 (MCR2; [1]): 21 nM
- EC50 (MCR5): 1.1 nM

Molecule: CCCC[C@H](NC(=O)[C@H](CO)NC(=O)[C@H](Cc1ccc(O)cc1)NC(=O)[C@H](CO)NC(=O)[C@@H]1CCCN1C(=O)[C@H](Cc1ccc(O)cc1)NC(=O)[C@@H](NC(=O)[C@H](CCCCN)NC(=O)[C@@H](NC(=O)[C@@H]1CCCN1C(=O)[C@H](CCCNC(=N)N)NC(=O)[C@H](CCCNC(=N)N)NC(=O)[C@H](CCCCN)NC(=O)[C@H](CCCCN)NC(=O)CNC(=O)[C@@H](NC(=O)[C@@H]1CCCN1C(=O)[C@H](CCCCN)NC(=O)CNC(=O)[C@H](Cc1c[nH]c2ccccc12)NC(=O)[C@H](CCCNC(=N)N)NC(=O)[C@H](Cc1ccccc1)NC(=O)[C@H](Cc1c[nH]cn1)NC(=O)[C@H](CCC(=O)O)NC(=O)[C@H](CCSC)NC(=O)[C@H](CO)NC(=O)[C@H](Cc1ccc(O)cc1)NC(=O)[C@@H](N)CO)C(C)C)C(C)C)C(C)C)C(=O)N[C@@H](CCC(=O)O)C(=O)N[C@@H](Cc1c[nH]cn1)C(=O)N[C@H](Cc1ccccc1)C(=O)N[C@@H](CCCNC(=N)N)C(=O)N[C@@H](Cc1c[nH]c2ccccc12)C(=O)NCC(=O)N[C@@H](CCCCN)C(=O)N1CCC[C@H]1C(=O)N[C@H](C(=O)O)C(C)C [compound 51] (HELM PEPTIDE1{S.Y.S.M.E.H.F.R.W.G.K.P.V.G.K.K.R.R.P.V.K.V.Y.P.S.Y.S.[Nle].E.H.[dF].R.W.G.K.P.V}$$$$V2.0; N-terminus and C-terminus assumed)
- EC50 (MCR2; [1]): 0.26 nM
- EC50 (MCR3; [1]): 1.5 nM
- EC50 (MCR4; [1]): 2.3 nM

Molecule: CCCC[C@H](NC(=O)[C@H](CO)NC(=O)[C@H](Cc1ccc(O)cc1)NC(=O)[C@H](CO)NC(=O)[C@@H]1CCCN1C(=O)[C@H](Cc1ccc(O)cc1)NC(=O)[C@@H](NC(=O)[C@H](CCCCN)NC(=O)[C@@H](NC(=O)[C@H](C)NC(=O)[C@H](CCCNC(=N)N)NC(=O)[C@H](CCCNC(=N)N)NC(=O)[C@H](CCCCN)NC(=O)[C@H](CCCCN)NC(=O)CNC(=O)[C@@H](NC(=O)[C@@H]1CCCN1C(=O)[C@H](CCCCN)NC(=O)CNC(=O)[C@H](Cc1c[nH]c2ccccc12)NC(=O)[C@H](CCCNC(=N)N)NC(=O)[C@H](Cc1ccccc1)NC(=O)[C@H](Cc1c[nH]cn1)NC(=O)[C@H](CCC(=O)O)NC(=O)[C@H](CCSC)NC(=O)[C@H](CO)NC(=O)[C@H](Cc1ccc(O)cc1)NC(=O)[C@@H](N)CO)C(C)C)C(C)C)C(C)C)C(=O)N[C@@H](CCC(=O)O)C(=O)N[C@@H](Cc1c[nH]cn1)C(=O)N[C@H](Cc1ccccc1)C(=O)N[C@@H](CCCNC(=N)N)C(=O)N[C@@H](Cc1c[nH]c2ccccc12)C(=O)NCC(=O)N[C@@H](CCCCN)C(=O)N1CCC[C@H]1C(=O)N[C@H](C(=O)O)C(C)C [compound 52] (HELM PEPTIDE1{S.Y.S.M.E.H.F.R.W.G.K.P.V.G.K.K.R.R.A.V.K.V.Y.P.S.Y.S.[Nle].E.H.[dF].R.W.G.K.P.V}$$$$V2.0; N-terminus and C-terminus assumed)
- EC50 (MCR2; [1]): 0.26 nM
- EC50 (MCR3; [1]): 1.5 nM

Molecule: CCCC[C@H](NC(=O)[C@H](CO)NC(=O)[C@H](Cc1ccc(O)cc1)NC(=O)[C@H](CO)NC(=O)[C@@H]1CCCN1C(=O)[C@H](Cc1ccc(O)cc1)NC(=O)[C@@H](NC(=O)[C@H](CCCCN)NC(=O)[C@@H](NC(=O)[C@H](C)NC(=O)[C@H](C)NC(=O)[C@H](C)NC(=O)[C@H](CCCCN)NC(=O)[C@H](CCCCN)NC(=O)CNC(=O)[C@@H](NC(=O)[C@@H]1CCCN1C(=O)[C@H](CCCCN)NC(=O)CNC(=O)[C@H](Cc1c[nH]c2ccccc12)NC(=O)[C@H](CCCNC(=N)N)NC(=O)[C@H](Cc1ccccc1)NC(=O)[C@H](Cc1c[nH]cn1)NC(=O)[C@H](CCC(=O)O)NC(=O)[C@H](CCSC)NC(=O)[C@H](CO)NC(=O)[C@H](Cc1ccc(O)cc1)NC(=O)[C@@H](N)CO)C(C)C)C(C)C)C(C)C)C(=O)N[C@@H](CCC(=O)O)C(=O)N[C@@H](Cc1c[nH]cn1)C(=O)N[C@H](Cc1ccccc1)C(=O)N[C@@H](CCCNC(=N)N)C(=O)N[C@@H](Cc1c[nH]c2ccccc12)C(=O)NCC(=O)N[C@@H](CCCCN)C(=O)N1CCC[C@H]1C(=O)N[C@H](C(=O)O)C(C)C [compound 54]
- EC50 (MCR2; [1]): 24 nM
- EC50 (MCR3; [1]): 0.92 nM
- EC50 (MCR4; [1]): 2.2 nM

Molecule: CCCC[C@H](NC(=O)[C@H](CO)NC(=O)[C@H](Cc1ccc(O)cc1)NC(=O)[C@H](CO)NC(=O)[C@H](CO)NC(=O)CNC(=O)CNC(=O)CNC(=O)[C@@H]1CCCN1C(=O)[C@H](Cc1ccc(O)cc1)NC(=O)[C@@H](NC(=O)[C@H](CCCCN)NC(=O)[C@@H](NC(=O)[C@@H]1CCCN1C(=O)[C@H](CCCNC(=N)N)NC(=O)[C@H](CCCNC(=N)N)NC(=O)[C@H](CCCCN)NC(=O)[C@H](CCCCN)NC(=O)CNC(=O)[C@@H](NC(=O)[C@@H]1CCCN1C(=O)[C@H](CCCCN)NC(=O)CNC(=O)[C@H](Cc1c[nH]c2ccccc12)NC(=O)[C@H](CCCNC(=N)N)NC(=O)[C@H](Cc1ccccc1)NC(=O)[C@H](Cc1c[nH]cn1)NC(=O)[C@H](CCC(=O)O)NC(=O)[C@H](CCSC)NC(=O)[C@H](CO)NC(=O)[C@H](Cc1ccc(O)cc1)NC(=O)[C@@H](N)CO)C(C)C)C(C)C)C(C)C)C(=O)N[C@@H](CCC(=O)O)C(=O)N[C@@H](Cc1c[nH]cn1)C(=O)N[C@H](Cc1ccccc1)C(=O)N[C@@H](CCCNC(=N)N)C(=O)N[C@@H](Cc1c[nH]c2ccccc12)C(=O)NCC(=O)N[C@@H](CCCCN)C(=O)N1CCC[C@H]1C(=O)N[C@H](C(=O)O)C(C)C [compound 55]
- EC50 (MCR2; [1]): 0.13 nM
- EC50 (MCR3; [1]): 0.92 nM
- EC50 (MCR4; [1]): 1.9 nM

Molecule: CCCC[C@H](NC(=O)[C@H](CO)NC(=O)[C@H](Cc1ccc(O)cc1)NC(=O)[C@H](CO)NC(=O)[C@H](CO)NC(=O)CNC(=O)CNC(=O)CNC(=O)CNC(=O)[C@H](CO)NC(=O)CNC(=O)CNC(=O)CNC(=O)CNC(=O)[C@@H]1CCCN1C(=O)[C@H](Cc1ccc(O)cc1)NC(=O)[C@@H](NC(=O)[C@H](CCCCN)NC(=O)[C@@H](NC(=O)[C@@H]1CCCN1C(=O)[C@H](CCCNC(=N)N)NC(=O)[C@H](CCCNC(=N)N)NC(=O)[C@H](C)NC(=O)[C@H](C)NC(=O)CNC(=O)[C@@H](NC(=O)[C@@H]1CCCN1C(=O)[C@H](CCCCN)NC(=O)CNC(=O)[C@H](Cc1c[nH]c2ccccc12)NC(=O)[C@H](CCCNC(=N)N)NC(=O)[C@H](Cc1ccccc1)NC(=O)[C@H](Cc1c[nH]cn1)NC(=O)[C@H](CCC(=O)O)NC(=O)[C@H](CCSC)NC(=O)[C@H](CO)NC(=O)[C@H](Cc1ccc(O)cc1)NC(=O)[C@@H](N)CO)C(C)C)C(C)C)C(C)C)C(=O)N[C@@H](CCC(=O)O)C(=O)N[C@@H](Cc1c[nH]cn1)C(=O)N[C@H](Cc1ccccc1)C(=O)N[C@@H](CCCNC(=N)N)C(=O)N[C@@H](Cc1c[nH]c2ccccc12)C(=O)NCC(=O)N[C@@H](CCCCN)C(=O)N1CCC[C@H]1C(=O)N[C@H](C(=O)O)C(C)C [compound 64]
- EC50 (MCR2; [1]): 4.7 nM
- EC50 (MCR5): 13 nM
- EC50 (MCR4; [1]): 2.3 nM

Molecule: Ac-SYS[Nle]EH[dF]RWGKPVGGGGSPAGLVAGGGGSSYSMEHFRWGKPVGKKRRPVKVYP [compound 32]
- EC50 (MCR2; [2]): 191 nM
- EC50 (MCR3; [2]): 1.5 nM
- EC50 (MCR4; [2]): 1.9 nM

Molecule: SYSMEHFRWGKPVGAARRPVKVYP [compound 49]
- EC50 (MCR2; [1]): 7.1 nM
- EC50 (MCR3; [1]): 10 nM

Molecule: SYSMEHFRWGKPVGAARRPVKVYPGGGSSYS[Nle]EH[dF]RWGKPV [compound 57]
- EC50 (MCR2; [1]): 4.2 nM
- EC50 (MCR5): 11 nM

Molecule: SYSMEHFRWGKPVGKKAAAVKVYP [compound 50]
- EC50 (MCR5): > 100 nM

Molecule: SYSMEHFRWGKPVGKKAAAVKVYPGGGGSGGSYS[Nle]EH[dF]RWGKPV [compound 62]
- EC50 (MCR2; [1]): 11 nM
- EC50 (MCR3; [1]): 0.72 nM
- EC50 (MCR4; [1]): 2.4 nM

Molecule: SYSMEHFRWGKPVGKKRRAVKVYP [compound 48]
- EC50 (MCR2; [1]): 0.11 nM
- EC50 (MCR3; [1]): 10 nM
- EC50 (MCR5): > 100 nM

Molecule: SYSMEHFRWGKPVGKKRRAVKVYPGGGGSGGGGSSYS[Nle]EH[dF]RWGKPV [compound 63]
- EC50 (MCR2; [1]): 0.13 nM
- EC50 (MCR3; [1]): 1 nM
- EC50 (MCR5): 11 nM

Molecule: SYSMEHFRWGKPVGKKRRPVKVYPGGGGSGGSYS[Nle]EH[dF]RWGKPV [compound 59]
- EC50 (MCR2; [1]): 0.18 nM
- EC50 (MCR5): 13 nM

From patent publication US11207385B2, “Melanocortins and methods of use thereof” (Aequus Biopharma, Inc., priority 2015, dated 2021)
